Test results published in the RNAGym collection of RNA variant scans (doi:10.7554/elife.90254).
The source gives no read counts; variants with many changes may rest on few reads.

B1: LINE1-full (parent)
chain: UACGUAGGUGGUUUUCCCCUGAUAGUGCUAAGGGGGCCUGGAAGUUUGGACUGGGCAGAGCUCAACACAGCGUGGCAAAGUGGCUGUGGCUAGACUGCCUCUCUGGAUUCCUCGUCACUCAGCAGGGCAUCUCUGAGAGAAAUGCC

Variants of: B1
Assay: self-cleavage, relative activity (ratio to wild type); higher = more cleavage; in vitro, sequencing; the parent is a self-cleaving ribozyme

Variant | self-cleavage
UACGUAGGUGGUUUUCCCCUGAUAGUGCUAAGGGGGCCUGGAAGUCUGGACUGGGCAGAGCUCAACACAGCGUGGCAAAGAGGCUGUGGCUAGACUGCCUCUCUGGAUUCCUCGUCACUCAGCAGGGCAUCUCUGAGGGAAAUGCC [U46C U81A A138G] | 3
UACGUAGGUGGCCUUCCCCUGAUAGUGCUAAGGGGGCCUGGAAGUUUGGACUGGGCAGUGCACAACACAGCGUGGCAGUGUGGCUGUGGCUAGACUGCCUCUCUGGAUUCCUCGUCACUCAGCAGGGCUUCUCUGAGAGAAACGCC [U12C U13C A59U U62A A78G A79U A129U U143C] | 0.39
UACGUAGGUGGUUUUCCCCUGAUAGUGCUAAGGGGGCCUGGAAGUUUGGACUGGGCAGAGCUCAGCACAGCGUGGCAUAGUGGCUGUGGCUAGACUGCCUCCCUGGAUUCCUCGUCACUCGGCAGGGCAUCUCUGAGAGAAAUGCC [A65G A78U U102C A121G] | 0
UACGUAGGUGGUUUACCCCUGAUAGUGCUAAGGGGGCCUGGAAGUUGGGACUGGGCAGAGCUAAACACAGCGUGGCAAAGUGGCUGUGGCUAGACUGCCUCUCUGGAUUCCUCGUCACUCAGCAGGGCAUCUCUGAGAGAAAUGCC [U15A U47G C63A] | 0.11
UACGUAGGUGGUUUUCCCCUGACAGUGCUAAGGGGGCCUGGAAGUUUGGACUGGGCAGAGCUCAACACAGCGUGGCAAAGUGGCUGUGGCUAGACUGCCUCUCCGGAUUCCUCGUCACCCAACAGGGCAUCUCUGAGAGAAAUGCC [U23C U104C U119C G122A] | 2.21
UACGUAGGAGGUUUUCCCCAGAUAGUGCUAAGGGGGCCUGGAAGUUUGGACUGGGCAGAGCUCAACACAGCGUGGCAAGGUGGCUGUGGCUAGGCUGCCUCUCUGGAUUCCUCGUCACUCAGCAGGGCAUCUCUGAGAGAAAUGCC [U9A U20A A79G A94G] | 0.38
UGCGUAGGUGGUUCUCCCCUGAUAGUGCUAAGGGGGCCUGGAAGUUUGGACUGGGCAGAGCUCAACACAGCGUGGCAGAGUGGCUGUGGCUAGACUGCCUCUCUGGAUUCCUCGACACUCAGCAGGGCAUCUCUGAGAGAAAUGCC [A2G U14C A78G U115A] | 0.91
UACGUAGGUGGUCUUCCCCUGAUAGUGCAAAGGGGGCCUGGAAGUUUGGGCUGGGCAGAGCUCAACACAGCGUGGCAAAGUGGCUGUGGCUAGACUGCCUCUCUGGAUUCCUCGUCACUCAGCAGGGCAUCUCUGAGAGAAAUGCC [U13C U29A A50G] | 0.68
UACGUAGGUGGCUCUCCCCUGAUAGUGCUUAGGGGGCCUGGAAGUUUGGACUGGGCAGAGCUCAACACAGCGUGGCAAAGUGGCUGUGGCUAGACUGCCUCUCUGGAUUCCUCGUCACUCAGCAGGGCAUCUCAGAGAGAGAUGCC [U12C U14C A30U U134A A141G] | 0.95
UACGGAGGUGGUUUUCCCCUGAUAGUGCUAAGGGGACCUGGAAGUUUGGACUGGGCAGAGCUCAACACAGCGUGGCAAGGUGGAUGUGGCUAGACUGCCUCUCUGGAUUCCUCGUCACUCAGCAGGGCAUCUCUGGGAGAAAUGCC [U5G G36A A79G C84A A136G] | 0.15
UGCGUAGGUGGUUUCCCCCUGAUAGUGCUAAGGGGGCCUGGAAGUUUGGACUGGGCAGAGCUCAACACAGCGUGGCAAAGUGGCUGUGGCUAGACUGCCUCUCUGGAUCCCUCGUCACUCAGCAGGGCAUCUCUGAGAGAGAUGCC [A2G U15C U109C A141G] | 0.26
UACGUAGGUGGUUUUCCCCUGAUAGUGCUAAGGGGGCCUGGAAGUUUGGACUGGACAGAGCUCAACACAGCGUGGCAAAGUGGCUGUGGCUAGACUGCCUCUCUGGAUUCCUCGUCACUCAGCAGGCCAUCUCUGAGAGAGAUGCC [G55A G127C A141G] | 0.44
UACGUAGGUGGUUUUCCCCUGAUGGUGCUAAGGGGGCCAGGAAGUUUGGACUGGGCAGAGCUCAACACAGCGUGGCAAAGUGGCUGUGGCUAGACUGCCUCUCUGGAUUCCUCGUCACCCAGCAGGGCAUCUCUGAGAGAAAUGCC [A24G U39A U119C] | 1.93
UGCGUAGGUGGUUUUCCCCUGAUAGUGCUAAGGGGGCCUGGAAGUUUGGACUGGGCAGAGCUCAACACAGCGUGGCAAAGUGGCUGUGGCUAGACUGCCUCUCCGGAUUCCUCGUCACUCAGAAGGGCAUCUCUGAGAGAACUGCC [A2G U104C C123A A142C] | 1.16
UACGUAGGUGGUUUCCCCCUGAUAGUGCUAAGGGGGCCUGGAAGUUAGGACUGGGCAGAGCUCGACACAGCGUGGCAAAGUGGCUGUGGCUAGACUGCCUCUCUGGAUUCCUCGUCACUCAGCAGGGCAUCUCUGAGAGAAAUGCC [U15C U47A A64G] | 0.09
UACGUAGGUGGUCUUCCCCUGAUAGUGCUAAGGGGGCCUGGGAGUUUGGACUGGGCAGAGCUCAAUACAGCGUGGCGAAGUGGCUGUGGCUAGACUGCCUCUCUGGAUUCCUCGUCACUCAGCAGGGCAUCUCUGAGAGAAAUGCC [U13C A42G C66U A77G] | 0.12
UACGUAGGUGGUCUUCCCCUGAUAGUGCUAAGGGGGCCCGGAAGUUUGGACUGGGCAGAGCUCAACACAGCGUGGCAAAGUGGCUGUGGCUUGACUGCCUCUCUGGAUUCCUCGUCACUCAGCAGGGUAUCUCUGAGAGAAAUGCC [U13C U39C A92U C128U] | 0.48
UACGUAGGCGGUUUUCCCUUGAUAGUGCUGAGGGGGCCUGGAAGUUUGGACUGGGCAGAGCUCAACACAGCGUGGCAAAGGGGCUGUGGCUAGACUGCCUCUCUGGAUUCCUCGUCACUCAGCAGGGCAUCUCUGAGAGAAAUGCC [U9C C19U A30G U81G] | 1.27
UACGUAGGUGGUUUCCCCCUGAAAGUGUUAAGGGGGCCUGGGAGUUUGGACUGGGCAGAGCUCAACACAGCGUGGCAAAGUGGCUGUGGCUAGACUGCCUCUCUGGAUUCCUCGUCACUCAGCAGGGCAUCUCUGAGAGAAAUGCC [U15C U23A C28U A42G] | 0.6
UACGUAGGAGGUUUUCCCCGGAUAGUGCUAAGGGGGCCUGGAAGUUUGGACUGGGCAGAGCUCAACACAGCGUGGCAAAGUGGCUGUGGCUAGACUGCCUCUCUGGAUUCCUCGUCACUCAGCAGGGCAUCACUGAGAGAAAUGCC [U9A U20G U132A] | 0.5

Variant | self-cleavage
UACGUGGGUGGCUUUCCCCUGAUAGUGCUAAGGGGGCCUGGAAGUUUGGACUGGGCAGAGCUCAACACUGCGUGGUAAAGUGGCUGUGGCUAGACUGCCUCUCUGGAUUCCUCGUCACUCAGCAGGGUAUCUCUGAGUGAAAUGCC [A6G U12C A69U C76U C128U A138U] | 0
UACGUAGGUGGUUUUCCCCUGAUAGUGCUAAGGGGGCCUGGAAGUUUGGACUGGGCAGAGCUCAACACAGGGUGGCAAAGUGGCUGUGGCUAGACUGCCUCUCUGGAUUCCUUGUCACUCAGCAGGGCAUCCCUGAAAGAAAUGCC [C71G C113U U132C G137A] | 0.3
UACGUAGGUGGUUUUCCCCUGAUAGUGCUAAGGGGGCCUGGAAAUUUGGACUGGGCAGAGCUCAAUACAGCGUGGCAAAGUGGCUGUGGCUAGACUGCCUCUCUGGAUUCCUCGUCACUCAGCAGGGCAUCUCUGAGUGAAAUGCC [G44A C66U A138U] | 0.05
UACGUAGGUGGUUUCCCCCUGAUAGUGCUAAGGGGGCCUGGAAGUUUGGACUGGGCAGAGCCCAACACAGCGUGGCAAAGUGGCUGUGGCUAGACUGCCUCUCUGGAUUCCUCGUCACUCAGCAGGGCAUCCCUGAGAGAAAUGCC [U15C U62C U132C] | 0
UACGUAGGUGGUUUUCCCCUGAUAGUGCUAAGGGGGCCUGGAAGUUUGGACUGGGCAGAGCUCAACACAGCGUGGCGGAGUGGCUGUGGCUAGACUGCCUCUCUGGAUUCCUCGUCACUCAGCAGGGCAUCUCUGAGAAAAAUGCC [A77G A78G G139A] | 2.51
UACGUAGGUGGUUUUCCCCUGAUAGUGCUAAGGGGACCUGGAAGUUUGGACUGGGCGGAGCCCAACACAGCGUGGCAAAGUGGCUGUGGCUAGACCGCCUCUCUGGAUUCCUCGUCACUCCGCAGGGCAUCUCUGAGAGAAAUGCC [G36A A57G U62C U96C A121C] | 0
UACGUAGGUGGUUUUCCCCUGAUAGUGCUAAGGGGGCCUGGAAGUUUGGACAGGGCAGAGCUCAACACAGCGUGGCAAAGUGGCUGUGGCUAGACUGCCUCUCUGGAUUCCGCGUCACUCAGCAGGGCAUCUCUGAGGGAAAUGCC [U52A U112G A138G] | 2.3
UACGUAGGUGGUUUUCCCCUGAUAGUGCUAAGGGGGCCUGGAAGUUUGGACUGGGCAGAGCUCAGCACAGCGUGGCAAAGUGGCUGUGGCUAGACCGCCUCUCUGGAUUCCUCGUCACUCAGCAGGGCAUCUCUGAGGGAAAUGCC [A65G U96C A138G] | 0
UACGUAGGUGGUUUUCCCCUGACAGUGCUAUGGGGGCCUGGAAGUUUGGACUGGGCAGAGCUCAACACAGCGUGGCAAACUGGCUGUGUCUAGACUGCCUCUCUGGAUUCCUCGUCACUCAGCAGGGCAUCUCUGAGAGAAAUGCC [U23C A31U G80C G89U] | 0.04
UACGUAGGUGGUUUUCCCCUGCUAGUGCUAAGGGGGCCUGGAGGAUUGGACUGGGCAGAGCUCUACACAGCGUGGCAAAGUGGCUGUGGCUAGACUGCCUCUCUGGAUUCCUCGUCACUCAGCGGGGCAUCUCUGAGAGAAAUGCC [A22C A43G U45A A64U A124G] | 0.91
UACGUAGGUGGUUUUCCCCUGAUAGUGCUGAGGGGGCCUGGAAGUUUGGACUGGGCAGAGCUCAACACAGCGUGGCAAAGUGGCUGUGGCUAGACCGCCUCUCUGGAUUCCUCGUCACUCAGCAGGGCAUCUCUGAGGGAAAUGCC [A30G U96C A138G] | 0.48
UGCGUAGGUGGUUCUCCCCUGAUAGUGCUAAGGGGGCCUGGAAGUUUGGACUGGGCAGAGCUCAACACAGCGUGGCAAAGUGGCUGUGGCUAGACUGCCUCUCUGGACUCCUCGUCACUCAGCAGGGCAUCCCUGAGAGAAAUGCC [A2G U14C U108C U132C] | 0
UACGUAGGUGGUUUUCACCUGAUAGUGCUAAGGGGGCCUGGAAGUUUGGACUGGGCAGAGCUCAACACAGCGUGGCAAAGUGGCUGUGGCUAGGCUGCCUCUCUGGAUUCCUCGUCACUCAGCAGGGCAUCUCUGAGAGAAACGCC [C17A A94G U143C] | 0.13
UACGUAGGUGGUUUUCCCCUGAUAGUGCUAAGGGGGCCUGGAAGUUUGGACUGGGCUGAGCUCAACACAGCGUGGCAAAGUGGCUGUGGCUAGACUGCCUCUCUGGAUUCCUCGUCACUCAGCAGGGCAUCUCUGGGUGAAAUGCC [A57U A136G A138U] | 0.14
UACGUAGGUGGUUUUCCCCUGAUAGUGCUAAGGGGGCCUGGAAGUUCGGGCUGGGCAGAGCUCAACACAGUGUGGCAAAGUGGCUGUGGCUAGACUGCCUCUCUGGAUUCCUCGUCACUCAGCAGGGCAUCUCUGAGAGAAAUGCC [U47C A50G C71U] | 0.86
UACGUAGGUGGUUUUCCCCUGAUAGUGCUAAGGGGGCCUGGAAGUUUGGACAGGGCAGAGCUCAACACAGCGUGGCAAAGUGGCUGUGGCUAGACUGCCUCCCUGGAUUCCUCGUCUCUCAGCAGGGCAUCUCUGAGAGAAAUGCC [U52A U102C A117U] | 1.31
UACGUAGGUGGUUUUCCCCUGAUAGUGCUAAGGGGGUCUGGAAGUCUGGACUGGGCAGGGCUCAACACAGCGUGGCAAAGUGGCUGUGGCUAGGCUGCCUCUCUGGAUUCCUCGUCACUCAGCAGGGCAUCUCUGAGAGAAAUGCC [C37U U46C A59G A94G] | 0.06
UACGUAGGUGGUUUCCCCCUGAUAGUGCUAAGGGGGCCUGGAAGUUUGGACCGGGCAGAUCUCAACACAGCGUGGCAAAGUGGCUGUGGCUAGACUGCCUCUCUGGAUUCCUCGUCACUCAGCAGGGCAUCUCUGAGAGAAAUGCC [U15C U52C G60U] | 0.01
UACGUAGGUGGUCUUCCCCUGAUAGUGCUAAGGGGGCCUGGAAGUUUGGACUGGGCAGAGCCCAACACAGCGUGGCAAAGUGGCUGUGGCUAGACUGCCUCUCUGGACUCCUCGUCACUCAUCAGGGCAUCUCUGAGAGAAGUGCC [U13C U62C U108C G122U A142G] | 0.05
